{"source": "PubChem BioAssay AID463173", "about": "(ICCB-Longwood Screening Facility, Harvard Medical School, 2010)", "note": "Screen size: about 52,000 compounds; about 4,300 (8.3%) were called active. Cut-off read from the data, not from the text of the source: active = survival mostly below about 52% (no sharp cut-off); inactive = mostly above about 56%. Some of the results follow."}
{"tested_on": "DeltatarO mutant", "test": "growth inhibition of S. aureus wild type versus tarO mutant, primary screen, teichoic acid synthesis inhibitors, RN4220, OD600 (AID 463173)", "details": "OD600, 18 h, stronger effect = lower value, screened at 18.75 µg/mL (by protocol)"}
{"smiles": "Cc1ccc2cc3c(N)nn(C(=O)c4cccc(F)c4)c3nc2c1", "survival": "inactive: 82%"}
{"smiles": "CC(=O)c1ccc(NC(=O)c2ccc(-c3nc(CSc4ccccc4)c(C)o3)cc2)cc1", "survival": "inactive: 81%"}
{"smiles": "Fc1ccc(-c2noc3ncnc(NCC4CCN(Cc5ccc(Cl)cc5)CC4)c23)cc1", "survival": "inactive: 72%"}
{"smiles": "c1ccc(Nc2nc(-c3ccncc3)cs2)cc1", "survival": "inactive: 100%"}
{"smiles": "CN1C(=O)CC(C(=O)O)SC1=Nc1cccc(C(F)(F)F)c1", "note": "(stereo not drawn)", "survival": "inactive: 77%"}
{"smiles": "O=C(Nc1ccccc1)C1CCCN1C1CCCCC1", "note": "(stereo not drawn)", "survival": "inactive: 71%"}
{"smiles": "CCn1ccc2c(OCC(=O)Nc3ccccc3C)cccc2c1=O", "survival": "active: 8%"}
{"smiles": "Cc1cc(C)cc(NC(=O)Cn2nnc(-c3nc(-c4ccncc4)no3)c2N)c1", "survival": "inactive: 89%"}
{"smiles": "COc1cc(C(c2nnnn2Cc2ccco2)N2CCN(C3CCCC3)CC2)cc(OC)c1OC", "note": "(stereo not drawn)", "survival": "inactive: 73%"}
{"smiles": "Cc1ccc(N2CCN(S(=O)(=O)c3ccc(F)c(C(=O)Nc4ccc(Cl)cc4Cl)c3)CC2C)cc1", "note": "(stereo not drawn)", "survival": "active: -4%"}
{"smiles": "Cc1cc2c(cc3c(SCc4nc(-c5ccccc5)oc4C)nnc(C)n32)o1", "survival": "inactive: 74%"}
{"smiles": "O=C(COCc1cc(-c2ccc3c(c2)OCO3)on1)N1CCN(c2ccccc2)CC1", "survival": "inactive: 102%"}
{"smiles": "COc1ccccc1NC(=O)C1=C(C)Nc2nc(SCc3ccccc3F)nn2C1c1cccs1", "note": "(stereo not drawn)", "survival": "inactive: 65%"}
{"smiles": "Cc1ccc(C(CC(=O)O)C2CCOC(C)(C)C2)cc1", "note": "(stereo not drawn)", "survival": "inactive: 98%"}
{"smiles": "COc1ccc(-n2nnnc2C2CCN(S(=O)(=O)c3ccc(C(C)(C)C)cc3)CC2)cc1", "survival": "inactive: 82%"}
{"smiles": "CCC(CC)C(=O)Nc1nc2c(s1)CC(C)CC2", "note": "(stereo not drawn)", "survival": "inactive: 73%"}
{"smiles": "O=C(Nc1ccc2nc(SCC(=O)N3CCCc4ccccc43)sc2c1)c1ccccc1", "survival": "inactive: 79%"}
{"smiles": "CCC(=O)Nc1cccc(NC(=O)c2cccs2)c1", "survival": "inactive: 72%"}
{"smiles": "CCOC(=O)c1ccc(NC(=O)Nc2cc3c(cc2N2CCCC2)n(C)c(=O)n3C)cc1", "survival": "inactive: 82%"}
{"smiles": "COc1ccc(N2CCN(C(=O)c3cccc(NC(=O)c4nsc5ccccc45)c3)CC2)cc1", "survival": "inactive: 119%"}
{"smiles": "Nc1c(C(=O)Nc2ccc(F)c(F)c2)sc2nc(-c3ccncc3)ccc12", "survival": "inactive: 70%"}
{"smiles": "COC(=O)c1cc(NC(=O)c2nn(C)c3c2COc2ccccc2-3)cc(C(=O)OC)c1", "survival": "inactive: 52%"}
{"smiles": "COc1cccc(CNC(=O)c2cc(C)nc3c2c(C)nn3-c2cccc(F)c2)c1", "survival": "inactive: 126%"}
{"smiles": "Clc1c(-c2nnc(-c3ccc(N4CCOCC4)cc3)o2)sc2ccccc12", "survival": "inactive: 70%"}
{"smiles": "COc1ccc(Nc2ccc3cc(S(=O)(=O)N4CCCC4)ccc3n2)cc1Cl", "survival": "inactive: 88%"}
{"smiles": "O=C(O)/C=C/c1ccc(S(=O)(=O)N(CCO)CCO)cc1", "survival": "inactive: 96%"}
{"smiles": "COc1ccccc1OCC(=O)N(Cc1ccc(N(C)C)cc1)CC1CCCO1", "note": "(stereo not drawn)", "survival": "inactive: 61%"}
{"smiles": "CCOc1ccc(-n2c(SCC(=O)Nc3ccccc3OC)nc3c(oc4ccccc43)c2=O)cc1", "survival": "inactive: 69%"}
{"smiles": "CC(=O)c1ccc(NC(=O)C2CCN(S(=O)(=O)c3ccc4c(c3)CCCN4C(=O)C3CCC3)CC2)cc1", "survival": "inactive: 95%"}
{"smiles": "Cc1ccc2oc(=O)c3cnn(CC(=O)N(C)c4ccc(F)cc4)c3c2c1", "survival": "inactive: 89%"}
{"smiles": "Cc1ccc(C)c(NC(=O)N2CC=C(c3c[nH]c4ccccc34)CC2)c1", "survival": "inactive: 99%"}
{"smiles": "COc1ccc(N2CCN(S(=O)(=O)c3c(C)nc4scc(C)n4c3=O)CC2)cc1", "survival": "inactive: 84%"}
{"smiles": "Cc1cc(C)c(NC(=O)CSc2nc(C)cc(C)c2C#N)c(C)c1", "survival": "inactive: 95%"}
{"smiles": "Cc1cccc(N(C)C(=O)C(Cc2ccccc2)NS(=O)(=O)c2cccc3nsnc23)c1", "note": "(stereo not drawn)", "survival": "inactive: 74%"}
{"smiles": "O=C(/C(=N/O)n1cncn1)c1ccc(Cl)cc1Cl", "survival": "inactive: 72%"}
{"smiles": "O=C(CN1Cc2ccccc2C1=O)Nc1cc(F)ccc1F", "survival": "inactive: 81%"}
{"smiles": "Cc1cccc(NC(=O)Cn2cc(S(=O)(=O)c3ccc(F)cc3)c(=O)c3cc4c(cc32)OCO4)c1", "survival": "inactive: 109%"}
{"smiles": "CCc1cc(C(=O)Nc2cnn(Cc3ccc(F)cc3)c2)no1", "survival": "inactive: 50%"}
{"smiles": "CC(=O)c1cccc(NC(=O)c2cnn(-c3cccc(C)c3)c2-n2cccc2)c1", "survival": "inactive: 99%"}
{"smiles": "Cc1ccc(-c2c(C(=O)N3CCN(c4cccc(C)c4C)CC3)oc(=O)c3ccccc23)cc1", "survival": "inactive: 78%"}
{"smiles": "CCC(=O)N1CCc2cc(Br)cc(S(=O)(=O)NCCc3ccccc3Cl)c21", "survival": "active: 39%"}
{"smiles": "CCCSc1nc(=O)c2c(n1C)NC(=O)CC2c1cccc(F)c1F", "note": "(stereo not drawn)", "survival": "active: 54%"}
{"smiles": "O=C(Cn1c(-c2cccs2)cc2cc(Cl)ccc21)NCc1ccccc1", "survival": "inactive: 88%"}
{"smiles": "COc1ccc(N2CCN(C(=O)Cc3c(C(=O)O)c(C)cn3C)CC2)cc1", "survival": "inactive: 55%"}
{"smiles": "CCOC(=O)c1c(NC(=O)CCCOc2ccc(C(C)(C)C)cc2)sc2c1CCC2", "survival": "active: 9%"}
{"smiles": "CC(C)=CC(=O)Nc1nnc(-c2ccccc2)s1", "survival": "inactive: 81%"}
{"smiles": "COc1ccc(-n2nc3ccc(NC(=O)COc4ccc(C)c(C)c4)cc3n2)cc1", "survival": "inactive: 56%"}
{"smiles": "CCC(OC(=O)C1=Cc2ccccc2OC1)C(=O)NC1CCCC1", "note": "(stereo not drawn)", "survival": "inactive: 94%"}
{"smiles": "CCc1ccccc1NC(=O)CN(Cc1ccccc1)S(=O)(=O)c1ccc2nc(C)sc2c1", "survival": "inactive: 102%"}
{"smiles": "CCOc1cc(C(=O)Nc2ccc3oc(-c4ccc(CC)cc4)nc3c2)cc(OCC)c1OCC", "survival": "active: 41%"}
{"smiles": "COc1ccccc1CCNC(=O)CCn1c(=O)c2cccn2c2ccc(F)cc21", "survival": "active: 44%"}
{"smiles": "Cc1cc(C)cc(NC(=O)CSCn2nnc3c(=O)[nH]c(Cc4ccc(F)cc4)nc32)c1", "survival": "inactive: 50%"}
{"smiles": "COc1ccc(CCNC(=O)CCc2c(C)nc3cc(-c4ccccc4)nn3c2C)cc1OC", "survival": "inactive: 62%"}
{"smiles": "CC(C)(C)NC(=O)C1CC(=O)OC1(C)C", "note": "(stereo not drawn)", "survival": "inactive: 102%"}
{"smiles": "COc1ccc(OC)c(CCNC(=O)c2cc3c(-c4ccccc4F)nn(C)c3s2)c1", "survival": "inactive: 54%"}
{"smiles": "CCOC(=O)c1cccc(NC(=O)CC2C(=O)N(c3ccc(F)cc3)C(=O)N2C(C)C)c1", "note": "(stereo not drawn)", "survival": "inactive: 89%"}
{"smiles": "Cc1ccc(-c2nc3ncccc3o2)cc1NC(=O)COc1ccc(C(C)C)cc1", "survival": "active: 6%"}
{"smiles": "Cc1cc(C)c2nc(-c3ccco3)cc(C(=O)O)c2c1", "survival": "inactive: 110%"}
